Experimental findings from the supplement of paper PMC9446081 are described below.

Hit rate of the full screen: of about 39,000 compounds, about 220 (0.56%) showed activity. The list shows a part of the results.
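Also: static incubation at 37 °C against the wild-type strain, values averaged over two biological replicates.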

The subject of the experiment is Escherichia coli K-12 BW25113. In words: relative growth (OD600 normalised to plate interquartile mean) (fraction); higher = less growth inhibition, active = 0.2 or less. The note with it: 50 µM; LB; incubation time: overnight (16-24 h).
With `O=C(C[C@H]1CC=CCCC(=O)OCCNC1=O)NCCO`, the relative growth was inactive: 0.998.

Turning to `CC(C)C(C)C=CC(C)C1CCC2C3=CC=C4CC(O)CCC4(C)C3CCC21C` (configuration not stated), the relative growth was inactive: 0.974.

As to `COc1cc(OC)c2c(OC)c(-c3ccc4c(c3)OCO4)c(=O)oc2c1`, the relative growth was inactive: 0.941.

As to `COc1cccc(S(=O)(=O)N(C)C[C@H]2Oc3ncc(-c4cccc(C(=O)N(C)C)c4)cc3C(=O)N([C@@H](C)CO)C[C@@H]2C)c1`, the relative growth was inactive: 0.999.

`C[C@H](CO)N1C[C@H](C)[C@@H](CN(C)CC2CC2)OCCCC[C@H](C)Oc2ccc(NC(=O)Nc3ccc(C(F)(F)F)cc3)cc2C1=O`: the relative growth is inactive: 1.01.

For `C[C@@H]1CN([C@H](C)CO)C(=O)c2cc(/C=C/c3ccccc3)cnc2O[C@@H]1CN(C)C(=O)Nc1ccc(C(F)(F)F)cc1`, the relative growth was inactive: 0.973.

With `CCNC(=S)N1CCC[C@H](C(N)=O)C1`, the relative growth is inactive: 0.951.

For `COc1ccc(C2C(=O)c3ccccc3C2=O)cc1`, the relative growth is inactive: 0.958.

As to `CNC(=O)CN1C(=O)[C@@H]2[C@@H](C1=O)[C@@H]1C=C[C@@H]2C1`, the relative growth was inactive: 0.983.

With `CCOC(=O)c1cn(C[C@H](Cc2ccccc2)NC(=O)N[C@H](CO)CCc2oc(C(C)=O)c(C(=O)OC)c2C(=O)OC)nn1`, the relative growth was inactive: 1.04.

In the case of `C[C@H]1CN([C@@H](C)CO)C(=O)c2cc(NC(=O)Nc3cccc4ccccc34)ccc2O[C@@H]1CN(C)Cc1ccc(-c2ccccc2)cc1`, the relative growth was inactive: 0.993.

As to `O=C(O)c1ccc(/C2=C3\C=CC(=N3)/C(c3ccc(C(=O)O)cc3)=c3/cc/c4[n]3[Mn+][n]3c2ccc3/C(c2ccc(C(=O)O)cc2)=C2/C=CC(=N2)\C=4c2ccc(C(=O)O)cc2)cc1`, the relative growth was inactive: 0.999.

Regarding `COCC(=O)N(C)C[C@@H]1Oc2cc(C#Cc3ccccc3)ccc2S(=O)(=O)N([C@H](C)CO)C[C@H]1C`, the relative growth was inactive: 1.01.

In the case of `COc1ccc(S(=O)(=O)N(C)C[C@@H]2Oc3ccc(NC(=O)Nc4cccc5ccccc45)cc3C(=O)N([C@@H](C)CO)C[C@@H]2C)cc1`, the relative growth was inactive: 1.

`COc1ccc(S(=O)(=O)Nc2ccc3c(c2)CC(=O)N([C@H](C)CO)C[C@@H](C)[C@@H](CN(C)Cc2ccc(Oc4ccccc4)cc2)O3)cc1`: the relative growth is inactive: 0.981.

On to `CC(C)[C@@H](CO)N1C(=O)[C@@H]2[C@H]3C(=O)OCCC/C=C\[C@H]3O[C@]23C=CCN(Cn2nnc4ccccc42)C(=O)[C@@H]13`, for which the relative growth was inactive: 0.987.

With `CC(C)NC(=O)Nc1ccc2c(c1)CC(=O)N([C@H](C)CO)C[C@H](C)[C@H](CN(C)S(=O)(=O)c1cccs1)O2`, the relative growth was inactive: 1.01.
